Where a name gives a salt, the structure may show the parent alone. ± gives the standard error. Out of some 1,300 compounds screened, about 130 (10%) showed an effect of 50% or more. The entries are a selection whose mix differs from that of the whole data set.
Tested on: Trichoderma virens ATCC 9645
Assay: growth yield (OD600) with compound + IPBC relative to untreated control; higher = less growth inhibition
Conditions: compound concentration: 100 uM, IPBC concentration: 200 ng/ml
Procedure, shortened: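 Plates were read for OD600 at 40 h and 72 h after Trichoderma virens ATCC 9645 spores (15,000 spores ml^−1 in potato dextrose broth) were grown at 30 °C with library compounds at 100 μM final, with or without a biocide at 200 ng ml^−1. Growth is stated relative to the control with neither agent, as the mean of duplicate screens.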

Compound	growth yield (40 h)	growth yield (72 h)
CNCCc1ccccn1 [Betahistine mesylate] + CCCCNC(=O)OCC#CI [3-iodo-2-propynyl butylcarbamate (IPBC)]	88 ± 8.3%	92 ± 5.6%
Nc1nc2c(ncn2COC(CO)CO)c(=O)[nH]1 [Ganciclovir] + CCCCNC(=O)OCC#CI [3-iodo-2-propynyl butylcarbamate (IPBC)]	99.9 ± 16%	98.1 ± 10%
CO[C@H]1/C=C/O[C@@]2(C)Oc3c(C)c(O)c4c(O)c(c5c(nc6cc(C)ccn65)c4c3C2=O)NC(=O)/C(C)=C\C=C\[C@H](C)[C@H](O)[C@@H](C)[C@@H](O)[C@@H](C)[C@H](OC(C)=O)[C@@H]1C [Rifaximin] + CCCCNC(=O)OCC#CI [3-iodo-2-propynyl butylcarbamate (IPBC)]	126 ± 8.1%	119 ± 6.5%
Clc1cccc(Cl)c1NC1=NCCN1 [Clonidine hydrochloride] + CCCCNC(=O)OCC#CI [3-iodo-2-propynyl butylcarbamate (IPBC)]	92.9 ± 5.6%	99.2 ± 4.4%
CC(=O)O[C@]1(C(C)=O)CC[C@H]2[C@@H]3C=C(Cl)C4=CC(=O)CC[C@]4(C)[C@H]3CC[C@@]21C [Chlormadinone acetate] + CCCCNC(=O)OCC#CI [3-iodo-2-propynyl butylcarbamate (IPBC)]	115 ± 9.5%	118 ± 6.7%
CCCNC(=O)NS(=O)(=O)c1ccc(Cl)cc1 [Chlorpropamide] + CCCCNC(=O)OCC#CI [3-iodo-2-propynyl butylcarbamate (IPBC)]	93.7 ± 4.1%	102 ± 2.2%
CN(C)CCOC(c1ccccc1)c1ccccc1.Cn1c(=O)c2[nH]c(Cl)nc2n(C)c1=O [Dimenhydrinate] + CCCCNC(=O)OCC#CI [3-iodo-2-propynyl butylcarbamate (IPBC)]	79.6 ± 2.7%	92.5 ± 2.3%
Clc1ccc2c(c1)CCc1cccnc1C2=C1CCNCC1 [Desloratadine] + CCCCNC(=O)OCC#CI [3-iodo-2-propynyl butylcarbamate (IPBC)]	56.2 ± 0.64%	89.7 ± 1.4%
O=C1NCC2(CCN(CCc3ccccc3)CC2)O1 [Fenspiride hydrochloride] + CCCCNC(=O)OCC#CI [3-iodo-2-propynyl butylcarbamate (IPBC)]	93.2 ± 1.1%	100 ± 2.4%
Cc1[nH]cnc1CN1CCc2c(c3ccccc3n2C)C1=O [Alosetron hydrochloride] + CCCCNC(=O)OCC#CI [3-iodo-2-propynyl butylcarbamate (IPBC)]	85.5 ± 1.3%	87.89 ± 0.21%
CCCOc1ccc2[nH]c(NC(=O)OC)nc2c1 [Oxibendazol] + CCCCNC(=O)OCC#CI [3-iodo-2-propynyl butylcarbamate (IPBC)]	44.6 ± 2.1%	
O=C(c1ccc(F)cc1)C1CCN(CCn2c(=O)[nH]c3ccccc3c2=O)CC1 [Ketanserin tartrate hydrate] + CCCCNC(=O)OCC#CI [3-iodo-2-propynyl butylcarbamate (IPBC)]	98.5 ± 8.3%	101 ± 3.2%
CCN(CC)C(=O)c1ccc(O)c(OC)c1 [Ethamivan] + CCCCNC(=O)OCC#CI [3-iodo-2-propynyl butylcarbamate (IPBC)]	87.8 ± 2.4%	92.6 ± 3.2%
CCC(C)(C)C(=O)O[C@H]1C[C@@H](C)C=C2C=C[C@H](C)[C@H](CC[C@@H]3C[C@@H](O)CC(=O)O3)[C@H]21 [Simvastatin] + CCCCNC(=O)OCC#CI [3-iodo-2-propynyl butylcarbamate (IPBC)]	104 ± 5.4%	99.8 ± 3.6%
CCCc1nn(C)c2c(=O)[nH]c(-c3cc(S(=O)(=O)N4CCN(C)CC4)ccc3OCC)nc12 [Sildenafil] + CCCCNC(=O)OCC#CI [3-iodo-2-propynyl butylcarbamate (IPBC)]	89.1 ± 3.6%	92.3 ± 2.9%
CCCNC(C)(C)COC(=O)c1ccccc1 [Meprylcaine hydrochloride] + CCCCNC(=O)OCC#CI [3-iodo-2-propynyl butylcarbamate (IPBC)]	87.7 ± 7.6%	91.8 ± 5.1%
c1ccc2c(c1)Nc1ccccc1S2 [Phenothiazine] + CCCCNC(=O)OCC#CI [3-iodo-2-propynyl butylcarbamate (IPBC)]	34.8 ± 2.7%	
C[N+](C)(CCOc1ccccc1)Cc1ccccc1.O=C([O-])c1cc2ccccc2cc1O [Bephenium hydroxynaphthoate] + CCCCNC(=O)OCC#CI [3-iodo-2-propynyl butylcarbamate (IPBC)]	63.5%	85.3 ± 2.4%
NC1CCN(c2c(F)cc3c(=O)c(C(=O)O)cn(C4CC4)c3c2Cl)C1 (centres undefined) [Clinafloxacin] + CCCCNC(=O)OCC#CI [3-iodo-2-propynyl butylcarbamate (IPBC)]	87.8 ± 6.8%	90.4 ± 3.1%
CCc1nn(CCCN2CCN(c3cccc(Cl)c3)CC2)c(=O)n1CCOc1ccccc1 [Nefazodone hydrochloride] + CCCCNC(=O)OCC#CI [3-iodo-2-propynyl butylcarbamate (IPBC)]	58.6 ± 1.1%	97.22 ± 0.73%

Compound	growth yield (40 h)	growth yield (72 h)
OCCN1CCN(CC/C=C2/c3ccccc3Sc3ccc(Cl)cc32)CC1 [Zuclopenthixol dihydrochloride] + CCCCNC(=O)OCC#CI [3-iodo-2-propynyl butylcarbamate (IPBC)]	4.92 ± 0.16%	3.57 ± 0.21%
Nc1ccc(/N=N/c2ccccc2)c(N)n1 [Phenazopyridine hydrochloride] + CCCCNC(=O)OCC#CI [3-iodo-2-propynyl butylcarbamate (IPBC)]	7.15 ± 0.48%	13.5 ± 1.8%
CN(C)CCOC(=O)C(c1ccccc1)C1(O)CCCC1 (centres undefined) [Cyclopentolate hydrochloride] + CCCCNC(=O)OCC#CI [3-iodo-2-propynyl butylcarbamate (IPBC)]	83.7 ± 3%	87.7 ± 2.1%
O=C(O)c1ccccc1Nc1cccc(C(F)(F)F)c1 [Flufenamic acid] + CCCCNC(=O)OCC#CI [3-iodo-2-propynyl butylcarbamate (IPBC)]	29.1 ± 2.1%	
CC[N+](C)(CC)CCC[n+]1c(-c2ccccc2)c2cc(N)ccc2c2ccc(N)cc21 [Propidium iodide] + CCCCNC(=O)OCC#CI [3-iodo-2-propynyl butylcarbamate (IPBC)]	8.1 ± 5.6%	12.7 ± 0.32%
Clc1ccc(C(c2ccccc2Cl)C(Cl)Cl)cc1 (centres undefined) [Mitotane] + CCCCNC(=O)OCC#CI [3-iodo-2-propynyl butylcarbamate (IPBC)]	71.6 ± 1.1%	85.5 ± 0.94%
O=C1O[C@H]([C@@H](O)CO)C(O)=C1O [Ascorbic acid] + CCCCNC(=O)OCC#CI [3-iodo-2-propynyl butylcarbamate (IPBC)]	92.1 ± 0.95%	96.28 ± 0.63%
Cc1cccc(C)c1OCC(=O)N[C@@H](Cc1ccccc1)[C@@H](O)C[C@H](Cc1ccccc1)NC(=O)[C@H](C(C)C)N1CCCNC1=O [Lopinavir] + CCCCNC(=O)OCC#CI [3-iodo-2-propynyl butylcarbamate (IPBC)]	108 ± 5.4%	111 ± 5.1%
Nc1ccc(C(=O)O)c(O)c1 [4-aminosalicylic acid] + CCCCNC(=O)OCC#CI [3-iodo-2-propynyl butylcarbamate (IPBC)]	87.36 ± 0.32%	94.18 ± 0.42%
O=C1Nc2ccc(Cl)cc2[C@@](C#CC2CC2)(C(F)(F)F)O1 [Efavirenz] + CCCCNC(=O)OCC#CI [3-iodo-2-propynyl butylcarbamate (IPBC)]	39.4 ± 2.9%	
O=C1c2cccc(O)c2C(=O)c2c(O)cccc21 [1,8-Dihydroxyanthraquinone] + CCCCNC(=O)OCC#CI [3-iodo-2-propynyl butylcarbamate (IPBC)]	55.12 ± 0.16%	77.2 ± 1.9%
CCN(CC)CCNC(=O)c1cc(Br)c(N)cc1OC [Bromopride] + CCCCNC(=O)OCC#CI [3-iodo-2-propynyl butylcarbamate (IPBC)]	92.6 ± 14%	93.8 ± 7.5%
CCCCC(=O)N(Cc1ccc(-c2ccccc2-c2nnn[nH]2)cc1)[C@H](C(=O)O)C(C)C [Valsartan] + CCCCNC(=O)OCC#CI [3-iodo-2-propynyl butylcarbamate (IPBC)]	95.3 ± 8.9%	101 ± 7.7%
OC(CCN1CCCCC1)(c1ccccc1)c1ccccc1 [Pridinol methanesulfonate salt] + CCCCNC(=O)OCC#CI [3-iodo-2-propynyl butylcarbamate (IPBC)]	94.2 ± 4.3%	94.1 ± 2.2%
C[C@H](CCC(=O)O)[C@H]1CC[C@H]2[C@@H]3C(=O)C[C@@H]4CC(=O)CC[C@]4(C)[C@H]3CC(=O)[C@]12C [Dehydrocholic acid] + CCCCNC(=O)OCC#CI [3-iodo-2-propynyl butylcarbamate (IPBC)]	95.5 ± 9.1%	97.3 ± 4%
CC(=O)O[C@H]1C[C@@H]2CC[C@@H]3[C@H](CC[C@@]4(C)[C@H]3C[C@H]([N+]3(C)CCCCC3)[C@@H]4OC(C)=O)[C@@]2(C)C[C@@H]1[N+]1(C)CCCCC1 [Pancuronium bromide] + CCCCNC(=O)OCC#CI [3-iodo-2-propynyl butylcarbamate (IPBC)]	80.2 ± 4%	86.21 ± 0.21%
O=C1c2c(O)ccc(O)c2C(=O)c2c(NCCNCCO)ccc(NCCNCCO)c21 [Mitoxantrone dihydrochloride] + CCCCNC(=O)OCC#CI [3-iodo-2-propynyl butylcarbamate (IPBC)]	1.27 ± 1.3%	0%
O=C(NC(Cc1cc(=O)[nH]c2ccccc12)C(=O)O)c1ccc(Cl)cc1 (centres undefined) [Rebamipide] + CCCCNC(=O)OCC#CI [3-iodo-2-propynyl butylcarbamate (IPBC)]	89.7 ± 5.6%	91.9 ± 3.1%
C[N+](C)(C)CCOC(N)=O [Carbachol] + CCCCNC(=O)OCC#CI [3-iodo-2-propynyl butylcarbamate (IPBC)]	100 ± 14%	97.1 ± 7.3%
